The labels stand for the following.
B1: PhoQ; a variant is named by its letters at X, in order, P23837 (parent)
chain: MKKLLRLFFPLSLRVRFLLATAAVVLVLSLAYGMVALIGYSVSFDKTTFRLLRGESNLFYTLAKWENNKLHVELPENIDKQSPTMTLIYDENGQLLWAQRDVPWLMKMIQPDWLKSNGFHEIEADVNDTSLLLSGDHSIQQQLQEVREDDDDAEMTHSVAVNVYPATSRMPKLTIVVVDTIPVELKSSYMVWSWFIYVLSANLLLVIPLLWVAAWWSLRPIEALAKEVRELEEHNRELLNPATTRELTSLVRNLNRLLKSERERYDKYRTTLTDLTHSLKTPLXXLQXXLRSLRSEKMSVSDAEPVMLEQISRISQQIGYYLHRASMRGGTLLSRELHPVAPLLDNLTSALNKVYQRKGVNISLDISPEISFVGEQNDFVEVMGNVLDNACKYCLEFVEISARQTDEHLYIVVEDDGPGIPLSKREVIFDRGQRVDTLRPGQGVGLAVAREITEQYEGKIVAGESMLGGARMEVIFGRQHSAPKDE

Some of the results follow. Where only a bound is given, the exact number is not on record here.

The variants in the assay derive from B1. The assay is described as follows: enrichment ratio after two sorts for PhoP signalling (ratio (wild type AVST 3.29)); higher = more functional. Particulars: with PhoP (E. coli).
Consider ASVR, for which the enrichment ratio was no more than 0.25.

As to LKMV, the enrichment ratio was no more than 0.25.

With NPSV, the enrichment ratio was no more than 0.25.

Consider EYWA, for which the enrichment ratio is no more than 0.25.

Consider RLFR, for which the enrichment ratio is no more than 0.25.

As to PRAH, the enrichment ratio is no more than 0.25.

For the variant AMAC, the enrichment ratio came to 6.75.

FQSL: the enrichment ratio is no more than 0.25.

Consider YGTD, for which the enrichment ratio is no more than 0.25.

As to PWCH, the enrichment ratio was no more than 0.25.

As to KLME, the enrichment ratio is no more than 0.25.

For AGVM, the enrichment ratio is 6.21.

For FYGW, the enrichment ratio was no more than 0.25.

For the variant VKWN, the enrichment ratio was no more than 0.25.

With MICN, the enrichment ratio was 31.9.

MNYH: the enrichment ratio was no more than 0.25.

As for RRYW, the enrichment ratio is no more than 0.25.

Take YGAP: the enrichment ratio is no more than 0.25.

Take QVCK: the enrichment ratio is no more than 0.25.

Regarding ARWA, the enrichment ratio was no more than 0.25.

With HTIG, the enrichment ratio is no more than 0.25.

For SNQW, the enrichment ratio is no more than 0.25.

ETDG: the enrichment ratio was no more than 0.25.

As for FAIP, the enrichment ratio is no more than 0.25.

As for YWHK, the enrichment ratio was no more than 0.25.

Regarding FYEW, the enrichment ratio is no more than 0.25.

On to PVTR, for which the enrichment ratio is no more than 0.25.

In the case of NNPK, the enrichment ratio was no more than 0.25.

With VFKN, the enrichment ratio was no more than 0.25.

In the case of KNRW, the enrichment ratio was no more than 0.25.

As to PVNR, the enrichment ratio was no more than 0.25.

For AQMF, the enrichment ratio was determined as 4.42.

Turning to KGND, the enrichment ratio was no more than 0.25.

With VKGG, the enrichment ratio was no more than 0.25.

Consider WRNK, for which the enrichment ratio was no more than 0.25.

In the case of AKEW, the enrichment ratio is no more than 0.25.

Turning to DHFA, the enrichment ratio is no more than 0.25.

As to SRDR, the enrichment ratio is no more than 0.25.

Regarding FAKG, the enrichment ratio is no more than 0.25.

As to RAGV, the enrichment ratio was no more than 0.25.

With DCAR, the enrichment ratio was no more than 0.25.

EEQI: the enrichment ratio is no more than 0.25.

For the variant TFKA, the enrichment ratio was no more than 0.25.

As for GKMR, the enrichment ratio is no more than 0.25.

For ANQS, the enrichment ratio was no more than 0.25.

As for MQNT, the enrichment ratio is no more than 0.25.

On to TNHF, for which the enrichment ratio is no more than 0.25.

Take MHYS: the enrichment ratio was no more than 0.25.

As for VKFK, the enrichment ratio was no more than 0.25.

Consider PFTH, for which the enrichment ratio is no more than 0.25.

For IFIC, the enrichment ratio was no more than 0.25.

Regarding VCYA, the enrichment ratio was no more than 0.25.

Turning to YQLF, the enrichment ratio was no more than 0.25.

With QMHS, the enrichment ratio was no more than 0.25.

On to PQEF, for which the enrichment ratio was no more than 0.25.

In the case of MMQI, the enrichment ratio is no more than 0.25.

For the variant FYTW, the enrichment ratio is no more than 0.25.

For the variant TPLM, the enrichment ratio was no more than 0.25.

With GVMT, the enrichment ratio was no more than 0.25.

Consider TWVW, for which the enrichment ratio was no more than 0.25.

FYIN: the enrichment ratio was no more than 0.25.

For REQT, the enrichment ratio is 5.8.

As to HARE, the enrichment ratio was no more than 0.25.

With IQEY, the enrichment ratio was no more than 0.25.

As to MYPN, the enrichment ratio is no more than 0.25.

Consider LGVM, for which the enrichment ratio is no more than 0.25.

MIHS: the enrichment ratio came out at 0.755.

LLED: the enrichment ratio was no more than 0.25.

For NAGI, the enrichment ratio was no more than 0.25.

As for KYSR, the enrichment ratio was no more than 0.25.

On to WWEY, for which the enrichment ratio is no more than 0.25.

For the variant QTYV, the enrichment ratio is 3.91.

In the case of HATS, the enrichment ratio is no more than 0.25.

LFKI: the enrichment ratio is no more than 0.25.

Take SYLL: the enrichment ratio is 0.392.

On to NRQR, for which the enrichment ratio is no more than 0.25.

Take DNAQ: the enrichment ratio was no more than 0.25.

In the case of QRRR, the enrichment ratio was no more than 0.25.

Consider SEVH, for which the enrichment ratio is 17.3.

As for PGWP, the enrichment ratio was no more than 0.25.

As to FAAK, the enrichment ratio was no more than 0.25.

For GVDR, the enrichment ratio was no more than 0.25.

On to IPLC, for which the enrichment ratio was no more than 0.25.

As for SLGG, the enrichment ratio was determined as 2.77.

Turning to DRPY, the enrichment ratio was no more than 0.25.

Turning to AWAI, the enrichment ratio was no more than 0.25.

MVIV: the enrichment ratio was no more than 0.25.

Turning to LDLV, the enrichment ratio was no more than 0.25.

For the variant YTTK, the enrichment ratio was no more than 0.25.

On to NQRH, for which the enrichment ratio is no more than 0.25.

As for AGMC, the enrichment ratio turned out to be 1.24.

In the case of EYHG, the enrichment ratio is no more than 0.25.

Turning to SDHF, the enrichment ratio stood at 2.09.

Take FKAP: the enrichment ratio is no more than 0.25.

As to VSQF, the enrichment ratio is no more than 0.25.

On to NSWQ, for which the enrichment ratio was no more than 0.25.

Consider SWEI, for which the enrichment ratio was no more than 0.25.

With RMCK, the enrichment ratio was no more than 0.25.

Turning to QIDN, the enrichment ratio is no more than 0.25.

On to HALR, for which the enrichment ratio was no more than 0.25.

Take VRCE: the enrichment ratio is no more than 0.25.

YHWS: the enrichment ratio is no more than 0.25.

Consider GKMS, for which the enrichment ratio is no more than 0.25.

For SADK, the enrichment ratio is no more than 0.25.

Take PRLK: the enrichment ratio is no more than 0.25.

Turning to SWRS, the enrichment ratio was no more than 0.25.

As to KHRE, the enrichment ratio is no more than 0.25.

Consider WQSL, for which the enrichment ratio is no more than 0.25.

On to TAEF, for which the enrichment ratio was no more than 0.25.

Regarding KGGD, the enrichment ratio was no more than 0.25.

Regarding LVFI, the enrichment ratio is no more than 0.25.

For FIRL, the enrichment ratio was no more than 0.25.

Regarding MLRV, the enrichment ratio was no more than 0.25.

TQWY: the enrichment ratio turned out to be 1.8.

For DAEA, the enrichment ratio amounted to 0.279.

Take KCVR: the enrichment ratio was no more than 0.25.

On to EFMD, for which the enrichment ratio is no more than 0.25.

For LSIP, the enrichment ratio was no more than 0.25.

For MFGT, the enrichment ratio was no more than 0.25.

As to DRVD, the enrichment ratio is no more than 0.25.

Consider KTKK, for which the enrichment ratio was no more than 0.25.

In the case of WDIR, the enrichment ratio was no more than 0.25.

In the case of MKDA, the enrichment ratio was no more than 0.25.

Turning to FKAY, the enrichment ratio was no more than 0.25.

Turning to IPHR, the enrichment ratio was no more than 0.25.

With DWHH, the enrichment ratio was no more than 0.25.

For EHPV, the enrichment ratio was no more than 0.25.

As to MVVA, the enrichment ratio was no more than 0.25.

Turning to AGPT, the enrichment ratio was no more than 0.25.

For IWYL, the enrichment ratio was no more than 0.25.

APNF: the enrichment ratio was no more than 0.25.

Consider HTYP, for which the enrichment ratio is no more than 0.25.

On to SRFC, for which the enrichment ratio was no more than 0.25.

Regarding LVCL, the enrichment ratio was no more than 0.25.

Consider ENDR, for which the enrichment ratio is no more than 0.25.

As for PNIH, the enrichment ratio was no more than 0.25.

Take VQED: the enrichment ratio is no more than 0.25.

In the case of FIFD, the enrichment ratio is no more than 0.25.

With DCMY, the enrichment ratio is no more than 0.25.

Take HYMP: the enrichment ratio was no more than 0.25.

ADEF: the enrichment ratio is no more than 0.25.

As for ACYC, the enrichment ratio came out at 0.489.

On to PHMM, for which the enrichment ratio was no more than 0.25.

Consider RSIK, for which the enrichment ratio is no more than 0.25.

Consider QQRD, for which the enrichment ratio was no more than 0.25.

For RQLE, the enrichment ratio was no more than 0.25.

Regarding DYHQ, the enrichment ratio is no more than 0.25.

As to EMLK, the enrichment ratio was no more than 0.25.

As for FQPN, the enrichment ratio is no more than 0.25.

As to THDH, the enrichment ratio is no more than 0.25.

For VERF, the enrichment ratio was no more than 0.25.

In the case of SDMM, the enrichment ratio came to 1.67.

Take AKYP: the enrichment ratio is no more than 0.25.

Values taken from a collection of fitness landscapes (doi:10.1126/science.1257360).
